{"source": "paper PMC4336329", "about": "(PLoS ONE, 2015)", "note": "Out of some 310,000 compounds screened, about 14,000 (4.5%) showed an effect of 50% or more. The effect is printed as a negative number. The list shows a part of the results.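 Also: peak tail current of the secondary pulse compared with the same well before compound.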", "data": [{"target": "human ether-à-go-go-related gene (hERG) potassium channel (human, UniProt Q12809)", "sequence (Q12809 whole entry, looked up)": "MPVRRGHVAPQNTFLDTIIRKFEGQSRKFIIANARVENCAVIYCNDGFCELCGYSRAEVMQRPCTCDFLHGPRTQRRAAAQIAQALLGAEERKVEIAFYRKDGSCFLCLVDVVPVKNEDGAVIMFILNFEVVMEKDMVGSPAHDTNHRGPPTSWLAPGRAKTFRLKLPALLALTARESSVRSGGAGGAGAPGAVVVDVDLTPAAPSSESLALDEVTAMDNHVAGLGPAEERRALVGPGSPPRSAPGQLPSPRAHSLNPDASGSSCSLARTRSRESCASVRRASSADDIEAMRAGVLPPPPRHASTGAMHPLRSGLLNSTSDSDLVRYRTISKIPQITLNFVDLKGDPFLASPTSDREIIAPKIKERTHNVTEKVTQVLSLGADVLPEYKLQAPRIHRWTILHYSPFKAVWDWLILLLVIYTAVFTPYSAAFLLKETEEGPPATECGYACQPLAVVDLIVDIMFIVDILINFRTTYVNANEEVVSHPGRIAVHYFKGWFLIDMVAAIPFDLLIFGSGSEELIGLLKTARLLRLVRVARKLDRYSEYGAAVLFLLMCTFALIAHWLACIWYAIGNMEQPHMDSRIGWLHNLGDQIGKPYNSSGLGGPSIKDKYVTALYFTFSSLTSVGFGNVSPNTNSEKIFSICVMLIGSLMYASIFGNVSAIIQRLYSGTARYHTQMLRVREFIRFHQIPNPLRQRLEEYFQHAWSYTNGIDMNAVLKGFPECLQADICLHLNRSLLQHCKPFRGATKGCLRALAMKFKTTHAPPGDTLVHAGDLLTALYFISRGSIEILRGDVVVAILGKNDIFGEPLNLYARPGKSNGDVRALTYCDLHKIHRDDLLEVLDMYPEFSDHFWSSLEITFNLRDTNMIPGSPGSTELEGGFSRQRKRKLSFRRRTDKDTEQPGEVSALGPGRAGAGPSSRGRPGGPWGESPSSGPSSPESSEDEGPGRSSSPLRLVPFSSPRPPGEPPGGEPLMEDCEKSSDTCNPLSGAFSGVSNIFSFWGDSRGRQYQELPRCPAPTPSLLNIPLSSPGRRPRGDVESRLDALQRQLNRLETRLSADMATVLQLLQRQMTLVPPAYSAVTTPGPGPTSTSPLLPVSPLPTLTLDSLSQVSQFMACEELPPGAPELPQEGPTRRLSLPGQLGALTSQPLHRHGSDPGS", "test": "primary screen, population patch clamp on CHO cells stably expressing hERG", "units": {"hERG current change (%, negative = inhibition) at 10uM": "%"}, "values": [{"smiles": "COc1ccc(NC(=O)CSc2nnc(Cc3ccccc3)c(=O)n2N)cc1OC", "hERG current change (%, negative = inhibition) at 10uM": -4.29}, {"smiles": "COc1ccc(NC(=S)Nc2cccc(Cl)c2)cc1OC", "hERG current change (%, negative = inhibition) at 10uM": 10.7}, {"smiles": "Cc1ccccc1Cn1c2ccccc2c2cn[nH]c(=O)c21", "hERG current change (%, negative = inhibition) at 10uM": 14.2}, {"smiles": "NC(=O)[C@@H]1CCCN1C(=O)[C@@H](Cc1cnc[nH]1)NC(=O)[C@@H]1CCC(=O)N1", "hERG current change (%, negative = inhibition) at 10uM": -0.464}, {"smiles": "Cc1ccc(N/N=C(\\C#N)C(N)=S)cc1C", "hERG current change (%, negative = inhibition) at 10uM": -20.6}, {"smiles": "Cc1ccccc1C(=O)Nc1c(C)[nH]c(=O)[nH]c1=O", "hERG current change (%, negative = inhibition) at 10uM": 5.89}, {"smiles": "COc1ccc(/C(C)=N/NC(=O)CNC(=O)C(c2ccccc2)c2ccccc2)c(OC)c1", "hERG current change (%, negative = inhibition) at 10uM": -0.824}, {"smiles": "CC(=O)OC1COC(n2ccc3cc([N+](=O)[O-])ccc32)C(OC(C)=O)C1OC(C)=O", "note": "(stereo not shown)", "hERG current change (%, negative = inhibition) at 10uM": -12.2}, {"smiles": "CN(CCO)C(=O)c1ccc(-c2nn(C)c(=O)c3ccccc23)cc1", "hERG current change (%, negative = inhibition) at 10uM": 10.9}, {"smiles": "COC(=O)c1sccc1NC(=O)c1ccc(OC)c([N+](=O)[O-])c1", "hERG current change (%, negative = inhibition) at 10uM": 29.3}, {"smiles": "CCN(CC)c1ccc(NC(=O)Cn2cc3c(n2)CCC(C)C3)c(C)c1", "note": "(stereo not shown)", "hERG current change (%, negative = inhibition) at 10uM": -3.35}, {"smiles": "CCc1c(C)[nH]c2nc3ccccc3n2c1=O", "hERG current change (%, negative = inhibition) at 10uM": 4.86}, {"smiles": "COc1ccccc1CC(=O)Nc1cccc2c1CCCC2", "hERG current change (%, negative = inhibition) at 10uM": -8.33}, {"smiles": "C/C(=N\\NC(=O)CN1CCN(Cc2ccccc2)CC1)c1ccncc1", "hERG current change (%, negative = inhibition) at 10uM": -35.8}, {"smiles": "CSc1ccccc1NC(=O)c1cc(-c2ccco2)on1", "hERG current change (%, negative = inhibition) at 10uM": 8.37}, {"smiles": "C=CCN1C(=O)c2ccc(C(=O)Nc3ccccn3)cc2C1=O", "hERG current change (%, negative = inhibition) at 10uM": 11.1}, {"smiles": "Cc1ccc2nc(-c3ccc(NC(=O)c4cccnc4)cc3)oc2c1", "hERG current change (%, negative = inhibition) at 10uM": 10.2}, {"smiles": "Cc1ccc(OCC(=O)N2CCC(C)CC2)c([N+](=O)[O-])n1", "hERG current change (%, negative = inhibition) at 10uM": -7.74}, {"smiles": "O=C1NC2(Nc3ccccc31)C(=O)Nc1ccccc12", "note": "(stereo not shown)", "hERG current change (%, negative = inhibition) at 10uM": 9.7}, {"smiles": "COc1ccc(CNC(=O)N[C@H](C(=O)O)C(C)C)cc1OC", "hERG current change (%, negative = inhibition) at 10uM": 9.5}, {"smiles": "CC(OC(=O)c1ccc(Cl)nc1)C(=O)NC1(C#N)CCCCC1", "note": "(stereo not shown)", "hERG current change (%, negative = inhibition) at 10uM": -6.98}, {"smiles": "COc1ccc2oc(C(=O)OC(C)C(=O)N(C)c3ccccc3)c(C)c2c1", "note": "(stereo not shown)", "hERG current change (%, negative = inhibition) at 10uM": -12.3}, {"smiles": "CCOC(=O)CN(c1ccccn1)S(=O)(=O)c1ccccc1", "hERG current change (%, negative = inhibition) at 10uM": -5.87}, {"smiles": "Cc1cc(C(=O)CSc2nc(N)cc(=O)[nH]2)ccc1F", "hERG current change (%, negative = inhibition) at 10uM": 16.1}, {"smiles": "CN(C)c1ccc(NC(=O)CCCc2ccccc2)cc1", "hERG current change (%, negative = inhibition) at 10uM": 1.39}, {"smiles": "O=C(c1cccn(Cc2ccc(C(F)(F)F)cc2)c1=O)N1CCOCC1", "hERG current change (%, negative = inhibition) at 10uM": 7.12}, {"smiles": "N#CN(CC(N)=O)c1nc(N2CCCCC2)nc(N2CCCCC2)n1", "hERG current change (%, negative = inhibition) at 10uM": 19.9}, {"smiles": "Cc1cc(C)nc(N2CCCC(C(=O)NCCc3ccc(F)cc3)C2)n1", "note": "(stereo not shown)", "hERG current change (%, negative = inhibition) at 10uM": -3.41}, {"smiles": "C[C@@]12CCC=C[C@H]1[C@H](c1ccc3ccccc3c1/C=C/c1ccccc1)N(Cc1ccccc1)C2=O", "hERG current change (%, negative = inhibition) at 10uM": -5.13}, {"smiles": "O=C(Nc1cccc(F)c1)Nc1cccc(Cl)c1", "hERG current change (%, negative = inhibition) at 10uM": 18.5}, {"smiles": "CCNC(=O)CCc1nc(-c2ccc(C(C)(C)C)cc2)no1", "hERG current change (%, negative = inhibition) at 10uM": -23.2}, {"smiles": "O=C(Cc1cccs1)NCc1cccc(Br)c1", "hERG current change (%, negative = inhibition) at 10uM": 4.53}, {"smiles": "c1ccc(CN=C2NN=C(c3ccccc3)CS2)cc1", "hERG current change (%, negative = inhibition) at 10uM": 3.72}, {"smiles": "CCC1Sc2ccc(S(=O)(=O)CCC(=O)NCc3cccs3)cc2NC1=O", "note": "(stereo not shown)", "hERG current change (%, negative = inhibition) at 10uM": 7.28}, {"smiles": "Cc1ncc(/C=C2\\C(=O)Nc3ccccc32)[nH]1", "hERG current change (%, negative = inhibition) at 10uM": 5.07}, {"smiles": "Cc1ccccc1Cn1c(-c2cncs2)nc2ccccc21", "hERG current change (%, negative = inhibition) at 10uM": -23.5}, {"smiles": "O=C(O)C1Cc2ccccc2CN1C(=O)CCl", "note": "(stereo not shown)", "hERG current change (%, negative = inhibition) at 10uM": 12}, {"smiles": "CC(C)(Oc1ccc(Cl)cc1)C(=O)N1CCC(C(N)=O)CC1", "hERG current change (%, negative = inhibition) at 10uM": 4.64}, {"smiles": "O=C(O)CN(c1ccccc1)C1SC(=O)NC1=O", "note": "(stereo not shown)", "hERG current change (%, negative = inhibition) at 10uM": 10.1}, {"smiles": "O=C(O)c1ccc(NC(=O)c2cccc(C(=O)Nc3ccc(C(=O)O)cc3)c2)cc1", "hERG current change (%, negative = inhibition) at 10uM": 7.31}, {"smiles": "O=C(CSc1ccc2nnc(-c3ccccc3)n2n1)NCC1CCCO1", "note": "(stereo not shown)", "hERG current change (%, negative = inhibition) at 10uM": -22.2}, {"smiles": "O=C1CN(C(=O)c2cc(F)cc(F)c2)c2ccccc2N1", "hERG current change (%, negative = inhibition) at 10uM": -1.62}, {"smiles": "Cc1ccc(S(=O)(=O)Oc2ccccc2/C=N/O)cc1", "hERG current change (%, negative = inhibition) at 10uM": -4.86}, {"smiles": "COc1cccc(C(c2sc3ncnn3c2O)N2CCN(C(=O)c3ccco3)CC2)c1", "note": "(stereo not shown)", "hERG current change (%, negative = inhibition) at 10uM": -37.2}, {"smiles": "CCOc1ccc(OCC)c(NC(=O)CN(c2ccc(OC)cc2)S(=O)(=O)c2c(C)noc2C)c1", "hERG current change (%, negative = inhibition) at 10uM": 19.4}, {"smiles": "CCc1nc2ccccc2c(C(=O)Nc2cc(C)ccc2C)c1C", "hERG current change (%, negative = inhibition) at 10uM": -40.4}]}]}
